Results as given in article PMC4439124, “Hairy/Enhancer-of-Split MEGANE and Proneural MASH1 Factors Cooperate Synergistically in Midbrain GABAergic Neurogenesis” (PLoS ONE, 2015).
These are yes or no findings as the source states them, for the method shown. For part of these data: Binding seen in cells or lysates may run through a third protein. Some binding calls cover weakened binding; strength is not graded here. For part of these data: Where a sequence is shown, tags or fusion partners need not be part of it.

How the values were obtained:
[1] = molecular target: T1, MASH1, yeast two-hybrid fusion (mouse) (UniProt Q02067); test: two-hybrid; growth of pair-wise yeast under increased stringency: 3-AT added to the media (5 mM and 15 mM plates, increasing concentrations)
T1 sequence: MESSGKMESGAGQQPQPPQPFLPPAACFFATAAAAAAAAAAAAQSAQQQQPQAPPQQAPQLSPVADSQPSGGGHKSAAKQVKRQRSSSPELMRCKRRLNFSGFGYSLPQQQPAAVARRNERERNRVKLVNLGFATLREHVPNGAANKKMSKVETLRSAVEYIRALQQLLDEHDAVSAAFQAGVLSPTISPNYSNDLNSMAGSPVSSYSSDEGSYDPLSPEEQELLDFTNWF

[2] = molecular target: T2, MGN (MEGANE), yeast two-hybrid fusion (mouse, UniProt Q7TS99 1-240); test: as above
T2 construct: The two Gal4 domains are alternatives: one fusion as bait (BD), another as prey (AD); also called Helt; BD-MGN; source: yeast two-hybrid fusion
T2 sequence (looked up): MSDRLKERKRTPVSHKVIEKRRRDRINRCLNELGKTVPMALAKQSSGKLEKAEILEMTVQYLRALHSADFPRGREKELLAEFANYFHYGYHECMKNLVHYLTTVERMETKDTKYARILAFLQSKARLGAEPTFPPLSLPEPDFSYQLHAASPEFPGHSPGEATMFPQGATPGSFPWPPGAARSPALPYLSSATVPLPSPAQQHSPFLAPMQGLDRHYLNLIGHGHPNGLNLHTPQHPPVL

[3] = molecular target: T2, MGN (MEGANE), yeast two-hybrid fusion; test: two-hybrid; 2-protein interaction assay in yeast: pGBKT7 baits in AH109 and pGADT7 preys in Y187, mated, diploids plated on SD/Ade- His- Leu- Trp-
[4] = molecular target: T2, MGN (MEGANE), yeast two-hybrid fusion; test: two-hybrid; library screen (Matchmaker GAL4): BD-MGN bait against a cDNA library of E9-E10.5 mouse embryos in pGADT7, AH109 co-transformed, growth on SD/Ade- His- Leu- Trp- with 3 mM 3-AT at 30°C, colony-lift β-galactosidase assay; positives confirmed by α/a mating with the MGN bait
[5] = molecular target: T1, MASH1, yeast two-hybrid fusion (mouse); test: two-hybrid; quantitative β-galactosidase assay on liquid cultures (X-gal; in parallel ONPG, absorbance at 420 nm), five independent transformants per pair, normalised against cell density and dilution
[6] = molecular target: T3, endogenous MASH1 (mouse (endogenous in E12.5 embryo midbrain)) (UniProt Q02067); test: co-IP; endogenous proteins, dMB and vMB of E12.5 wild-type mouse embryos homogenised in RIPA buffer with protease inhibitors, DNases and RNases; MASH1 or MGN antibodies cross-linked to magnetic G-beads, overnight, wash 120 mM NaCl, elution 100 mM glycine-HCl pH 2.5; western blot
T3 sequence: T1 sequence

[7] = molecular target: T4, endogenous MGN (mouse (endogenous in E12.5 embryo midbrain)) (UniProt Q7TS99); test: as above
T4 sequence: T2 sequence (looked up)

[8] = molecular target: T5, MGN expressed in mouse embryonic stem cells (mouse) (UniProt Q7TS99); test: co-IP; lysates of mouse ES cells electroporated with pCDNA3-1 Mgn and/or Mash1, extracted 24-48 h later; control for the Co-IP from brain tissue
T5 sequence: T2 sequence (looked up)

[9] = molecular target: T2, MGN (MEGANE), yeast two-hybrid fusion; test: two-hybrid; quantitative β-galactosidase assay on liquid cultures (X-gal; in parallel ONPG, absorbance at 420 nm), five independent transformants per pair, normalised against cell density and dilution
[10] = molecular target: T6, MGN, epitope-tagged fusion protein in HEK293 cells (mouse) (UniProt Q7TS99); test: co-IP; HEK293 cells transiently co-transfected with N-terminal FLAG- and N-terminal myc-tagged proteins (pcDNA3.1), 24-48 h, Protein G immunoprecipitation kit, western blot with anti-c-myc and anti-FLAG; anti-HA as negative control
T6 sequence: T2 sequence (looked up)

B1: MASH1, yeast two-hybrid fusion (natural protein, mouse, UniProt Q02067 1-231, looked up)
chain: T1 sequence
notes: The two Gal4 domains are alternatives: one fusion as bait (BD), another as prey (AD); also called Ascl1; MASH1-AD; source: yeast two-hybrid fusion
**Q.** Which binding [1] does the source give for B1 here?
**A.** no binding (condition: in higher levels of 3-AT)

**Q.** What about the binding [2] of the same binder?
**A.** binds

**Q.** And the binding [3]?
**A.** binds

**Q.** And the binding [4]?
**A.** binds

**Q.** What about the binding [5] of the same binder?
**A.** binds

B2: endogenous MGN (protein, UniProt Q7TS99 1-240)
chain: T2 sequence (looked up)
**Q.** Which binding [6] does the source give for B2 here?
**A.** binds

B3: endogenous MASH1 (protein, UniProt Q02067 1-231)
chain: T1 sequence
**Q.** With B3 as the binder, how does the binding [7] read?
**A.** binds

B4: MASH1 expressed in mouse embryonic stem cells (protein, UniProt Q02067 1-231)
chain: T1 sequence
**Q.** For B4, which binding [8] is on record?
**A.** binds

B5: MGN (MEGANE), yeast two-hybrid fusion (protein, UniProt Q7TS99 1-240)
chain: T2 sequence (looked up)
**Q.** With B5 as the binder, how does the binding [9] read?
**A.** binds

**Q.** And the binding [2]?
**A.** no binding (condition: in higher levels of 3-AT)

**Q.** And the binding [3]?
**A.** binds

**Q.** And the binding [4]?
**A.** binds

B6: MASH1, epitope-tagged fusion protein in HEK293 cells (protein, UniProt Q02067 1-231)
chain: T1 sequence
**Q.** How did the binding [10] turn out when B6 was run?
**A.** binds

B7: MGN, epitope-tagged fusion protein in HEK293 cells (protein, UniProt Q7TS99 1-240)
chain: T2 sequence (looked up)
**Q.** B7 was tested. Which binding [10] did it give?
**A.** binds

B8: NGN1, yeast two-hybrid fusion (protein, UniProt P70660 1-244)
chain: MPAPLETCISDLDCSSSNSSSDLSSFLTDEEDCARLQPLASTSGLSVPARRSAPALSGASNVPGAQDEEQERRRRRGRARVRSEALLHSLRRSRRVKANDRERNRMHNLNAALDALRSVLPSFPDDTKLTKIETLRFAYNYIWALAETLRLADQGLPGGSARERLLPPQCVPCLPGPPSPASDTESWGSGAAASPCATVASPLSDPSSPSASEDFTYGPGDPLFSFPGLPKDLLHTTPCFIPYH
**Q.** How did the binding [3] turn out when B8 was run?
**A.** no binding

B9: NGN3, yeast two-hybrid fusion (protein, UniProt P70661 1-214)
chain: MAPHPLDALTIQVSPETQQPFPGASDHEVLSSNSTPPSPTLIPRDCSEAEVGDCRGTSRKLRARRGGRNRPKSELALSKQRRSRRKKANDRERNRMHNLNSALDALRGVLPTFPDDAKLTKIETLRFAHNYIWALTQTLRIADHSFYGPEPPVPCGELGSPGGGSNGDWGSIYSPVSQAGNLSPTASLEEFPGLQVPSSPSYLLPGALVFSDFL
**Q.** How did the binding [3] turn out when B9 was run?
**A.** no binding

B10: NGN1 in mammalian cell culture (Co-IP) (protein, UniProt P70660 1-244)
chain: B8 chain
**Q.** B10 was tested. Which binding [10] did it give?
**A.** no binding

B11: NGN3 in mammalian cell culture (Co-IP) (protein, UniProt P70661 1-214)
chain: B9 chain
**Q.** B11 was tested. Which binding [10] did it give?
**A.** no binding
